Experimental findings from publication PMC4336329 (PLoS ONE, 2015) are described below.

The structures appear in SMILES notation. About 2,200 (0.71%) of roughly 310,000 compounds showed an effect of 50% or more. Effects have a minus sign here. This is one part of the list.

For the experiment, the target named is human ether-à-go-go-related gene (hERG) potassium channel (human, UniProt Q12809). The experiment is described as follows: primary screen, population patch clamp on CHO cells stably expressing hERG.
human ether-à-go-go-related gene (hERG) potassium channel, sequence (Q12809 whole entry, looked up): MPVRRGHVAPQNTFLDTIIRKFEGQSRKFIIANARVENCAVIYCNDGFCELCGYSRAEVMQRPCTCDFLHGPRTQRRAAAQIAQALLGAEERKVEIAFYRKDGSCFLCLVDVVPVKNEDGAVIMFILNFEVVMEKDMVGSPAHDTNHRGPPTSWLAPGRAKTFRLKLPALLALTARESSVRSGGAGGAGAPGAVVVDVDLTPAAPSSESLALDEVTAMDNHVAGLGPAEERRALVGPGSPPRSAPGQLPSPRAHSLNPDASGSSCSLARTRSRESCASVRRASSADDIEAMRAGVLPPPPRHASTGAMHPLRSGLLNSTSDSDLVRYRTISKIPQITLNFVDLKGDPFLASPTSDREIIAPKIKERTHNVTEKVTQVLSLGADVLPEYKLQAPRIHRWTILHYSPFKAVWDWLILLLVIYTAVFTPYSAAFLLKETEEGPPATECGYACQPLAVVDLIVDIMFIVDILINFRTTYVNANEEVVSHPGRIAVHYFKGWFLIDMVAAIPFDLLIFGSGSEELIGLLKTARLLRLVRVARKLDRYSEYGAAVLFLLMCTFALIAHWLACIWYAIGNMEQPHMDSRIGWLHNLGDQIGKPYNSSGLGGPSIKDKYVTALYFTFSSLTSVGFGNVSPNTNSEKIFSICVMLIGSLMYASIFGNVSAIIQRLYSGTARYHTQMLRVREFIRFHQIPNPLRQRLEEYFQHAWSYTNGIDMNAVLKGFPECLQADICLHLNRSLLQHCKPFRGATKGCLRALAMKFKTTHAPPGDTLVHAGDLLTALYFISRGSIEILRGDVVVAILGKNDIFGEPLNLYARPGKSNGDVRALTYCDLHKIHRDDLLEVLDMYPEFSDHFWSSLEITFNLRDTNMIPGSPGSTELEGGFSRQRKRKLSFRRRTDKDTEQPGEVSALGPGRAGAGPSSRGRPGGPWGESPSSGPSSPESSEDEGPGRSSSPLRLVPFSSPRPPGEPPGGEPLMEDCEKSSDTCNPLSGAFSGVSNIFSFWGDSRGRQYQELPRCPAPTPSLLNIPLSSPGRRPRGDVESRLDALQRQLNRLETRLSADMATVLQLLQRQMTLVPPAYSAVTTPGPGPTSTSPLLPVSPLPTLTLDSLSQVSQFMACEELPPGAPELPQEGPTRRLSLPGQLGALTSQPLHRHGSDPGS
As to `Cn1cc(C(=O)NCCN2CCN(c3cccc(Cl)c3)CC2)c2c3ccccc3n(C)c2c1=O`, the “hERG current change (%, negative = inhibition) at 1uM” value is given as -7.97%.
Take `CC(C)N1CCN(S(=O)(=O)c2ccc3ccccc3c2)CC1.O=C(O)C(=O)O`: the “hERG current change (%, negative = inhibition) at 1uM” value came out at 20.2%.
For `Cn1c(C(=O)NCc2cccnc2)cc2sccc21` the value was -8.98%; for `CCOc1ccc(C(=O)NC(=S)N2CCN(c3ccc(C(F)(F)F)cc3[N+](=O)[O-])CC2)cc1`, 6.77%.
In the case of `CCOc1ccc(N2C(=O)S/C(=C\c3cc(OC)c(OC)c(OC)c3)C2=O)cc1`, the “hERG current change (%, negative = inhibition) at 1uM” value is on record as 10.8%.
With `COCCn1c(=NC(=O)c2ccc(S(=O)(=O)N3CCOCC3)cc2)sc2cc(S(N)(=O)=O)ccc21` the figure was 5.96%; with `CCCCCOc1ccc(C(=O)NCCC(=O)NCCCC(=O)OCC)cc1`, 11.4%; with `O=[N+]([O-])c1cc(C(F)(F)F)cc([N+](=O)[O-])c1NN=C1CCCCC1`, 9.66%.
With `Cc1cc(SCC(=O)Nc2c(C)n(C)n(-c3ccccc3)c2=O)nc2ccccc12` the figure was 8.86%; with `O=C(NCc1ccco1)c1cc(-c2ccncc2)nc2ccccc12`, -2.39%.
`CC(=O)c1sc2nc(SCC(=O)N3CCCCC3)[nH]c(=O)c2c1C`: the “hERG current change (%, negative = inhibition) at 1uM” value is on record as 7.05%.
With `O=C(CN1C(=O)COc2ccc(S(=O)(=O)N3CCCC3)cc21)NC1CCCCCCC1` the figure was 15.6%; with `COc1ccc(NC(=S)Nc2ccc(OCc3ccccc3)cc2)c(OC)c1`, 12.6%; with `CC(=O)Nc1ccc(C(=O)OCC(=O)Nc2c(F)cccc2F)cc1`, 13.5%.
As to `CCCN(CCC)C(=S)NC(=O)c1ccc(-c2ccccc2)cc1`, the “hERG current change (%, negative = inhibition) at 1uM” value was 2.75%.
Regarding `CN(CC(=O)Nc1ccc(F)c(F)c1F)c1cnccn1`, the “hERG current change (%, negative = inhibition) at 1uM” value is -7.21%.
With `COC(=O)c1c(NC(=O)CC2SCC(C(=O)OC)NC2=O)sc2c1CCCC2` (centres unmarked) the figure was 7.92%; with `COCCOc1ccc(C(F)(F)F)cc1NC(=O)c1ccccc1F`, 10.1%; with `O=C(O)c1cccc(NC(=O)C2CCCO2)c1` (centres unmarked), 19.7%.
With `O=C(Nc1cc2c3c(c1)CC(=O)N3CCC2)c1ccccc1Br` the figure was 10.8%; with `Cc1ccc(NC(=O)/C=C\C(=O)NCC(=O)O)cc1C`, 12.1%.
For `CC1(C)CC(=O)C(Sc2ccccc2[N+](=O)[O-])=C(O)C1` the value was 17.6%; for `Cc1cccc(N2CCN(C(=O)c3ccccc3SCC(=O)N3CCCC3)CC2)c1C`, 2.89%; for `CCC1(C(=O)c2ccccc2)C2c3ccccc3OC(=O)C21C(C)=O` (centres unmarked), 9.22%.
With `O=C(CN(Cc1ccccc1)C(=O)c1csnn1)NCc1ccc2c(c1)OCO2`, the “hERG current change (%, negative = inhibition) at 1uM” value is on record as 6.31%.
Take `CC(=O)Nc1ccc2c(c1)nc(CCN1CCOCC1)n2C`: the “hERG current change (%, negative = inhibition) at 1uM” value amounted to 8.26%.
With `CC(C)c1nnc(SCc2ccc(CSc3nnc(C(C)C)n3N)cc2)n1N` the figure was 0.868%; with `COC(=O)[C@@H](N)Cc1ccc(O)c(O)c1.Cl`, 18.7%; with `CCCCn1nnnc1SCC(=O)c1ccc(C)c(C)c1`, 10.5%.
For `CC1=C(C(=O)Nc2cccnc2)C(c2ccncc2)n2nnnc2N1` (centres unmarked) the value was 7.41%; for `C=C1CCN(C(Cc2ccccc2)C(=O)OC)S(=O)(=O)c2ccc(F)cc21` (centres unmarked), 11.3%; for `COC(=O)c1ccccc1Oc1cnc2ccccc2n1`, 14.6%.
For `CCOc1cc(C(=O)Nc2ccc(S(=O)(=O)Nc3cc(C)on3)cc2)cc(OCC)c1OCC` the value was 1.51%; for `CCCCOc1ccc(CN2CCN(CC)CC2)cc1`, 3.98%; for `CC1CC(C)CN(C(=O)CN2C(=O)NC(c3ccccc3)(c3ccccc3)C2=O)C1` (centres unmarked), 5.62%.
With `Cc1ccc(S(=O)(=O)N2[C@@H](c3ccccc3F)C(C(=O)O)=CC[C@H]2c2ccc(C(C)C)cc2)cc1`, the “hERG current change (%, negative = inhibition) at 1uM” value was 13.8%.
With `O=C(O)c1ccc2ncc(NC(=O)c3ccc(F)cc3)c(=O)n2c1` the figure was 13%.
For `CCC(=O)OCC(=O)c1cc(C)n(-c2ccc(Br)cc2)c1C`, the “hERG current change (%, negative = inhibition) at 1uM” value is 7.37%.
For `CCCCn1c(=O)c(C(=O)Nc2ccsc2C(=O)OC)c(O)c2ccccc21` the value was -3.65%; for `CCSc1nc(=O)n(-c2ccccc2)c(C)c1C(C)=O`, -1.68%.
On to `CCn1c(SCC(=O)OC)nnc1-c1ccc(C)cc1`, for which the “hERG current change (%, negative = inhibition) at 1uM” value turned out to be 3.45%.
With `COc1ccc(CN2CN(C3CCCC3)CSC2=S)cc1` the figure was 4.84%.
With `CC(C)Cc1ccc(C(C)NC(=O)Cc2ccc(S(=O)(=O)N3CCOCC3)s2)cc1` (centres unmarked) the figure was 8.69%; with `Clc1ccc(NCc2nnc3n2CCCCC3)cc1`, 6.07%; with `Cc1cc(C)c2c(N)c(C(=O)C(C)(C)C)sc2n1`, 14.7%.
For `COc1cccc(/C=N/NC(=O)C(=O)N2CCCCCC2)c1O` the value was 12.9%.
On to `CCOC(=O)c1c(NC(=O)CN2CCN(C(=O)c3ccco3)CC2)sc2c1CCCC2`, for which the “hERG current change (%, negative = inhibition) at 1uM” value is recorded as 2.03%.
With `COc1ccccc1C(O)c1nccn1C` (centres unmarked) the figure was 13.3%.
For `CCOc1ccc(NC(=O)c2ccc(NC(=O)COC(=O)Cc3ccccc3)cc2)cc1` the value was 15.8%; for `Cc1ccc(S(=O)(=O)N(C)C)cc1NC(=O)CN1C(=O)NC2(CCCCCCC2)C1=O`, 15.6%.
For `COc1ccc(CC(=O)Nc2ccc(S(=O)(=O)Nc3nc(C)cc(C)n3)cc2)cc1` the value was -3.72%; for `Cn1c(=O)[nH]c(=O)c2c1nc(N1CCN(CCO)CC1)n2Cc1ccccc1Cl`, 4.6%.
In the case of `O=C(CSc1nc2ccsc2c(=O)n1CC1CCC(C(=O)O)CC1)c1ccc(Cl)cc1` (centres unmarked), the “hERG current change (%, negative = inhibition) at 1uM” value came to 20.9%.
With `COC(=O)c1sc(NC(=O)COc2cccnc2[N+](=O)[O-])c(C(=O)OC)c1C` the figure was 10.4%; with `Cn1c(=O)n(Cc2ccccc2Cl)c2ccccc21`, 11.1%; with `CCOc1ccc(OCCCC(=O)NNC(=O)c2ccncc2)cc1`, -12.5%.
